The campaign covered roughly 310,000 compounds. About 2,200 (0.71%) showed an effect of 50% or more. The effect is printed as a negative number. The list shows a part of the results.

We go through 25 molecules from publication PMC4336329 (PLoS ONE, 2015).

For this assay, the target named is human ether-à-go-go-related gene (hERG) potassium channel (human, UniProt Q12809). As to the kind of experiment: primary screen, population patch clamp on CHO cells stably expressing hERG.
human ether-à-go-go-related gene (hERG) potassium channel, sequence (Q12809 whole entry, looked up): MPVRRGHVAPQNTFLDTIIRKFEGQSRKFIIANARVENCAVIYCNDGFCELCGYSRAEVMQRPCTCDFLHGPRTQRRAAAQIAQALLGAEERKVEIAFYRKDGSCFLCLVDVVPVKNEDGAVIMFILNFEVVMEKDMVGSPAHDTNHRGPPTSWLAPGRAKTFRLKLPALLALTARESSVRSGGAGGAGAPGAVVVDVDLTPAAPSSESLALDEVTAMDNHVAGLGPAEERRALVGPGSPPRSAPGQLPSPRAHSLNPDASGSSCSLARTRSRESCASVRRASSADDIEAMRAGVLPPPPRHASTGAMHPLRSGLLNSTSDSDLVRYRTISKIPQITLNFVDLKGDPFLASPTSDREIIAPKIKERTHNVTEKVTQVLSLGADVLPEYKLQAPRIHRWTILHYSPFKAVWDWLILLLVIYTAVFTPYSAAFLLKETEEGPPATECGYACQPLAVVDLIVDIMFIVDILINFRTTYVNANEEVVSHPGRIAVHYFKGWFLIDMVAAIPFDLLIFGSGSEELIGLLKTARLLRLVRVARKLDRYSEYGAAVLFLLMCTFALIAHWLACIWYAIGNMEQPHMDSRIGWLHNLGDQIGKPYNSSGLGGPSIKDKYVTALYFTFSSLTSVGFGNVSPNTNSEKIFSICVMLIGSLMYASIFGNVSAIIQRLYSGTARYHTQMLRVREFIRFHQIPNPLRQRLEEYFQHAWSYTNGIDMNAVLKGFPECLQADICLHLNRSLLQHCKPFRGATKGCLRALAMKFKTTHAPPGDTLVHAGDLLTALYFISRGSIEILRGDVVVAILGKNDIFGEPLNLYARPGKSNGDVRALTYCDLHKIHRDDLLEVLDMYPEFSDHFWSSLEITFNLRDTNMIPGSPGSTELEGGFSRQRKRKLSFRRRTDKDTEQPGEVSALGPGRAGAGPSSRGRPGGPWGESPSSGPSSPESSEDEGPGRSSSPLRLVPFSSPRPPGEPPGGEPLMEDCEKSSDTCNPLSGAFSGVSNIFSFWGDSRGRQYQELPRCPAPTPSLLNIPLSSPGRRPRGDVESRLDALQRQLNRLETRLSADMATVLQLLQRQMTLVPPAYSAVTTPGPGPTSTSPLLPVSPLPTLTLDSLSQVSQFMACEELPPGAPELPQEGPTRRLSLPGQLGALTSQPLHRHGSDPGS
Take `N#Cc1ccc(C2=CC(=O)C[C@H](c3ccc(F)cc3)C2)cc1`: the “hERG current change (%, negative = inhibition) at 1uM” value is on record as -61.4%.
Regarding `CCOC(=O)c1ccc(-n2[nH]c(-c3ccccc3)cc2=O)cc1`, the “hERG current change (%, negative = inhibition) at 1uM” value is 12.5%.
As to `CCOc1ccc(OCCCC(=O)N(C)CC(=O)Nc2ccc(N3CCOCC3)cc2)cc1`, the “hERG current change (%, negative = inhibition) at 1uM” value turned out to be 7.24%.
For the molecule `COc1ccc(NC(=O)CSc2n[nH]c(-c3ccco3)n2)cc1`, the “hERG current change (%, negative = inhibition) at 1uM” value stood at 3.52%.
In the case of `O=C(CCc1nnc(CCCc2ccccc2)o1)NCCN1CCOC1=O`, the “hERG current change (%, negative = inhibition) at 1uM” value came to 16%.
Consider `Cc1cccc(OCCCC(=O)Nc2ccc(N3CCOCC3)cc2)c1`, for which the “hERG current change (%, negative = inhibition) at 1uM” value came out at 14.2%.
As to `Cc1cc(-n2cnc(-c3cn(C)nc3C)n2)no1`, the “hERG current change (%, negative = inhibition) at 1uM” value worked out at 15.3%.
As to `Cc1ccc(-c2ccc(CCC(=O)O)n2-c2ccc(O)cc2)cc1`, the “hERG current change (%, negative = inhibition) at 1uM” value is on record as 15%.
Under `Cc1nc(SCc2ccccc2)[nH]c(=O)c1CC(=O)OCC(C)C` stands 15.6%; under `CCCC(=O)OCCNc1cc(Sc2nc3ccccc3[nH]2)c2nonc2c1[N+](=O)[O-]`, 9.73%; under `O=C(NCCc1ccccc1)C1CCCN1S(=O)(=O)c1ccc(F)cc1` (stereo not shown), 11%.
With `COc1cc(C(=O)OC(C)CN2CCCCC2)cc(OC)c1OC.Cl` (stereo not shown), the “hERG current change (%, negative = inhibition) at 1uM” value stood at 11.2%.
Under `O=C(NCc1cccnc1)c1ccc(NC(=O)c2ccc([N+](=O)[O-])cc2)cc1` stands 12.3%; under `COCCN1C(=O)N[C@@H](c2cccs2)C(C(C)=O)=C1C`, 12.8%.
Turning to `Cc1ccc(NC(=O)C2CC(=O)N(C(C)c3ccccc3)C2)cc1` (stereo not shown), the “hERG current change (%, negative = inhibition) at 1uM” value is on record as 7.39%.
As for `O=C(NCC1CCN(c2ccc(S(=O)(=O)N3CCOCC3)cc2)CC1)c1ccc(Cl)cc1`, the figure is -30.5%.
Regarding `CCOP(=O)(OCC)C1(O)C(=O)Nc2ccccc21` (stereo not shown), the “hERG current change (%, negative = inhibition) at 1uM” value amounted to 2.09%.
Under `COc1ccc(S(=O)(=O)/C(C#N)=C/Nc2cccc(OC)c2)cc1` stands 17.4%; under `CCC(=O)Nc1ccc(Cl)c(NC(=O)c2ccc(Br)o2)c1`, 11.5%.
As for `CCCNS(=O)(=O)c1ccc(CCC(=O)N2CCC(C)CC2)cc1`, the figure is 9.84%.
On to `O=C(CCc1nc2cccnc2n1Cc1ccccc1)N1CCOCC1`, for which the “hERG current change (%, negative = inhibition) at 1uM” value was 1.69%.
As for `O=C(CCCN1C(=O)/C(=C/c2cccs2)SC1=S)Nc1cccc(C(=O)O)c1`, the figure is 6.36%.
Under `CCOc1ccccc1N(C(=O)c1ccco1)C(C(=O)NC1CCCC1)c1cccs1` (stereo not shown) stands -3.75%; under `Cc1ccc2c(COC(=O)CC3Sc4ccccc4NC3=O)cc(=O)oc2c1C` (stereo not shown), 21.3%.
As for `O=C(c1ccc(C(=O)N2CCCc3ccccc32)nc1)N1CCCc2ccccc21`, the figure is 3.94%.
